Data taken from PMC4336329 (PLoS ONE, 2015).
The whole screen tested about 310,000 compounds, of which about 14,000 (4.5%) showed an effect of 50% or more. The effect is printed as a negative number. The list shows a part of the results.

target: human ether-à-go-go-related gene (hERG) potassium channel (human, UniProt Q12809); test: primary screen, population patch clamp on CHO cells stably expressing hERG
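Also: peak tail current of the secondary pulse compared with the same well before compound.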

human ether-à-go-go-related gene (hERG) potassium channel, sequence (Q12809 whole entry, looked up): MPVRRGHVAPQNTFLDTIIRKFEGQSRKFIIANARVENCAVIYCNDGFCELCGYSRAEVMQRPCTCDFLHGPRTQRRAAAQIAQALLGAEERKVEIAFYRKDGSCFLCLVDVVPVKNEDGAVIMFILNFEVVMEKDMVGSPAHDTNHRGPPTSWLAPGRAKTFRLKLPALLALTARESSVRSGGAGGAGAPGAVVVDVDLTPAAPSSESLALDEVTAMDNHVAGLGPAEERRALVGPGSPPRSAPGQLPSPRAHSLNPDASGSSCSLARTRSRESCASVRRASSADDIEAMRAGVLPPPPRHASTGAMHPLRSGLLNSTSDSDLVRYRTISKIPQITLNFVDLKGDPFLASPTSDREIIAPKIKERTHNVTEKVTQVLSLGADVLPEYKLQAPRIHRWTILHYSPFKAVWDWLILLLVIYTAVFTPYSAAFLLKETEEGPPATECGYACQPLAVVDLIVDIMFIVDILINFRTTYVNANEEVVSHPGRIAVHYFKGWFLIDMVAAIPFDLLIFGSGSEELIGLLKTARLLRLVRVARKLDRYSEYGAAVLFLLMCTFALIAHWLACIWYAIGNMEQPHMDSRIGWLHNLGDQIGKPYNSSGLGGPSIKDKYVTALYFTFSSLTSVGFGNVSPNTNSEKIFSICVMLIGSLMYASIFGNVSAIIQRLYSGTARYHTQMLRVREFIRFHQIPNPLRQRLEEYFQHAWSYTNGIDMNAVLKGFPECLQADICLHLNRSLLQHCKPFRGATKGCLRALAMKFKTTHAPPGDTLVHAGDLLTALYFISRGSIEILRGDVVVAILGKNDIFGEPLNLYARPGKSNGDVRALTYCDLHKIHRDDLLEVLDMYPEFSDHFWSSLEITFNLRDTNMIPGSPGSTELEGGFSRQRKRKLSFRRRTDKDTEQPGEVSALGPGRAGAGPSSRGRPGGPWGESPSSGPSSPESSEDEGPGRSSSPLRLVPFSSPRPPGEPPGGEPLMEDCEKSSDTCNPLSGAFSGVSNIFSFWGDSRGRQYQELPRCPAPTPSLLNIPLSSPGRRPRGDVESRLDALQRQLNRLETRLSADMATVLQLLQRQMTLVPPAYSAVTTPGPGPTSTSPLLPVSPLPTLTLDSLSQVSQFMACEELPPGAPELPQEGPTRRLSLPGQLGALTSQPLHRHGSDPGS

| SMILES | hERG current change (%, negative = inhibition) at 10uM [%] |
| --- | --- |
| CCn1c(C(O)c2ccccc2)nc2ccccc21 (centres unmarked) | -22.7 |
| COC(=O)CCC/C=C1\SC[C@@H](NC(=O)c2ccccc2)C1NC(C)=O (some centres unmarked) | 8.46 |
| CC(=O)NCCC(=O)N(Cc1ccccc1)c1nc2c(C)cccc2s1 | -57.4 |
| CCC1C(=O)N=C(SCC(=O)Nc2ccc(C)cc2)N(c2ccccc2)C1=O (centres unmarked) | 19.4 |
| CC1(C)CC(C(CCN(Cc2ccccc2)C(=O)c2ccco2)c2ccc(F)cc2)CCO1 (centres unmarked) | -10.4 |
| O=C(CSc1n[nH]c(=O)[nH]c1=O)Nc1ccc(C(=O)O)cc1 | 14.9 |
| c1cncc(-c2nc(NCc3cccs3)c3ccccc3n2)c1 | 8.45 |
| Cl.c1ccc(CNc2nc3ccccc3n2CCN2CCOCC2)nc1 | -15.5 |
| COc1ccccc1NC(=O)COn1nnc2ccc(S(=O)(=O)N3CCOCC3)cc21 | 4.92 |
| COc1cc(C(=S)N2CCOCC2)ccc1OC(=O)c1cc(OC)c(OC)c(OC)c1 | 21.8 |
| COc1ccc(NC(=O)C2CCCCN2S(=O)(=O)c2ccc(F)cc2)c(OC)c1 (centres unmarked) | -5.05 |
| Cc1cccc(C(=O)NC(=O)Nc2c(C)cc(C)nc2C)c1 | 12.4 |
| COc1ccccc1NC(=O)CSc1ccc2nnc(-c3ccccn3)n2n1 | 0.136 |
| COc1ccc(C(=O)Nc2ccncc2)c(OC)c1 | 5.73 |
| COc1cc(OC)cc(C(=O)NCCNC(=O)c2ccco2)c1 | -11.4 |
| COc1ccccc1-c1c(NC(=O)c2ccco2)n(C)c2ccccc2c1=O | -3.33 |
| c1ccc(-c2nnnn2-c2ccccc2)cc1 | 12.3 |
| O=C(O)Cn1c(O)c(C=Nc2ccccc2)sc1=S [4242532] | 14.1 |
| COc1ccc(C(=O)c2ccc(N(C)C)cc2)c2ccccc12 | -3.44 |
| CC1(C)CC2CC(C)(CN2C(=O)c2ccc([N+](=O)[O-])cc2)C1 (centres unmarked) | -62.4 |
| COCCn1c(=N)c(C(=O)NCCc2ccc(OC)cc2)cc2c(=O)n3cccc(C)c3nc21 | -84.8 |
| Cc1cc(NC(=O)CSc2nnc(CNC(=O)c3cccc(C(F)(F)F)c3)o2)no1 | 8.48 |
| Cc1sc2nc(C3CC3)nc(NCCNS(C)(=O)=O)c2c1C | -6.7 |

| SMILES | hERG current change (%, negative = inhibition) at 10uM [%] |
| --- | --- |
| CSCC[C@H](NC(=O)Cc1ccc(Cl)cc1)C(=O)N1CCC2(CC1)NCCc1[nH]cnc12 | 19.8 |
| Cc1cccc(NS(=O)(=O)Cc2ccccc2)c1C | 26 |
| O=C(NCc1ccccc1Cl)NC(=O)c1ccccc1 | -2.02 |
| COC(=O)Nc1nnc(Cc2ccccc2)s1 | -3.3 |
| Cc1cc(C)cc(OCc2nnc(SCC(=O)OC(C)C)o2)c1 | 8.21 |
| CC(=O)N1CCN(c2ccc(NCc3cccc(C)c3)cc2)CC1 | 11.5 |
| N=c1c2c(-c3ccccc3)c(-c3ccccc3)n(Cc3ccccc3)c2ncn1CCCn1ccnc1 | -71.2 |
| CCOC(=O)C1=C(c2ccccc2)ON(C)C1c1ccccc1 (centres unmarked) | 12.7 |
| C[N+](C)(C)CCCC(=O)c1ccc2c(c1)OCO2.[Cl-] | 10.4 |
| COc1cccc(NC(C)(C)c2nnnn2-c2c(C)cccc2C)c1 | -63.4 |
| CCOc1ccc(-c2noc(CCCC(=O)NCC3CCCO3)n2)cc1OC (centres unmarked) | 6.17 |
| O=C(CSc1nccc(-c2cccs2)n1)Nc1cccc(Cl)c1 | -1.02 |
| C#CCn1c(=NC(=O)c2cc(-c3cccs3)nc3ccccc23)sc2cc(S(N)(=O)=O)ccc21 | 2.08 |
| CCCCN(C(=O)CSc1nnc(-c2ccc(Cl)cc2)o1)c1c(N)n(CC(C)C)c(=O)[nH]c1=O | 2.52 |
| CCCn1c(C)cc(C(=O)COC(=O)c2cc(S(=O)(=O)NCC(C)C)c(Cl)cc2Cl)c1C | 1.05 |
| Cc1nc(CCNC(=O)COc2ccccc2)cs1 | 17.2 |
| CCn1c(=O)cc(SCC(=O)N2CCN(Cc3ccc4c(c3)OCO4)CC2)c2ccccc21 | -24.8 |
| CSCCC(NC(=O)c1cccc(C)c1)C(=O)Nc1sccc1C(N)=O (centres unmarked) | 9.29 |
| CCCc1cc(C(F)(F)F)c(C#N)c(=O)[nH]1 | 2.55 |
| Cc1ccc(N/C(SCc2ccccc2C)=C(/C#N)C(=O)NCc2ccco2)cc1C | 10.2 |
| CCc1nc(SCC(=O)O)c(C#N)cc1C | 5.22 |
| CCOC(=O)c1cc(-c2ccccc2)nn1-c1ccccn1 | -11.1 |
| CC(C(=O)OCC(=O)c1c(N)n(C)c(=O)n(C)c1=O)N1C(=O)c2ccccc2C1=O (centres unmarked) | -15.2 |

| SMILES | hERG current change (%, negative = inhibition) at 10uM [%] |
| --- | --- |
| CCOC(=O)C1CCCCN1Cc1cc(Cl)ccc1O (centres unmarked) | 8.23 |
| CCOC(=O)Cc1csc(NC(=O)Nc2ccccc2)n1 | 2.25 |
| O=C1CC2CS(=O)(=O)CC2N1c1ccc(Cl)cc1Cl (centres unmarked) | 5.75 |
| N#Cc1c(N)n(CCNC(=O)c2ccc(Cl)cc2)c2nc3ccccc3nc12 | 15.3 |
| Cc1nc(SC(C)C)[nH]c(=O)c1Cc1ccccc1 | -11.3 |
| O=C(CN1CCCC1)Nc1cc(C(F)(F)F)ccc1Cl | 2.22 |
| CCN(CC)C(=O)Cn1cnc2sc(C(=O)N3CCN(c4ccc(OC)cc4)CC3)c(C)c2c1=O | 8.32 |
| Cc1cccc(NC(=O)Cn2nc([N+](=O)[O-])c(Br)c2C)n1 | -0.775 |
| CC(C)n1c(NCc2cc(Cl)ccc2O)nc2ccccc21 | 12.6 |
| Cc1cc(C)n(CCC(=O)N/N=C/c2ccc(Cl)c([N+](=O)[O-])c2)n1 | -36.5 |
| CCc1noc(C)c1C(=O)NNC(=O)COc1ccc(Br)cc1 | -18.3 |
| CCOc1ccc(N2C(=O)CN=C2Nc2ccccc2Cl)cc1 | -2.73 |
| O=C(Cc1cc(=O)[nH]c(=O)[nH]1)NCc1ccccc1 | -4.19 |
| CCn1c(O)c(C=Nc2ccc(S(N)(=O)=O)cc2)c(=O)n(CC)c1=S | -23.9 |
| O=C1OC(c2ccc(Br)cc2)=N/C1=C\N1CC2CC(C1)c1cccc(=O)n1C2 (centres unmarked) | -45.2 |
| Cc1cc(=O)oc2cc3oc(=O)cc(C)c3cc12 | 10.1 |
| CCc1nnc(NC(=O)c2ccc(-c3cc(C(F)(F)F)ccc3Cl)o2)s1 | 2.99 |
| O=C(CSCc1c(Cl)cccc1Cl)NCC1CCCO1 (centres unmarked) | -5.26 |
| COc1ccc(CNC(=O)CN(C(=O)CCC(=O)Nc2nccs2)c2ccc(C)cc2)cc1 | 17 |
| O=c1[nH]c(-c2ccc(Cl)cc2)nc(=S)[nH]1 | 10.9 |
| CC1(C)NC(=O)N(CC(=O)OCC(=O)Nc2sccc2C#N)C1=O | 1.07 |
| CCOc1ccc(-n2c([O-])cc(=O)[nH]c2=O)cc1.[NH4+] | 7.42 |
| Cc1sc(N/N=C/c2cccnc2)nc1-c1ccccc1 | 6.85 |

| SMILES | hERG current change (%, negative = inhibition) at 10uM [%] |
| --- | --- |
| CCN(C(=O)COC(=O)CSc1ccc([N+](=O)[O-])cc1)C1CCS(=O)(=O)C1 (centres unmarked) | -17.5 |
| COc1ccc(NC(=O)CC2SC(=N)N(c3ccccc3)C2=O)c(OC)c1 (centres unmarked) | 29.4 |
| O=C(O)C1Nc2c(C(=O)N3CCOCC3)cccc2C2C=CCC12 (centres unmarked) | 10.7 |
| COc1ccc(C(=O)Nc2ccccn2)cc1S(=O)(=O)N1CCOCC1 | -8.04 |
| CCc1noc(C)c1C(=O)OCC(=O)N(CC)c1c(N)n(Cc2ccccc2)c(=O)[nH]c1=O | 10.9 |
| O=C1CCC(C(=O)N2CCCC2)CN1Cc1cccc(C(F)(F)F)c1 (centres unmarked) | 6.71 |
| Cl.OCCNc1nc(N2CCN(Cc3ccccc3)CC2)nc2ccccc12 | -68.3 |
| Cc1ccc(CNC(=O)CCNC(=O)N2CCn3c2nc2ccccc23)cc1 | -33.2 |
| O=C1C(Cl)=C(N2CCOCC2)C(=O)N1c1ccccc1Cl | -9.48 |
| COCCNC(=O)NC(=O)COC(=O)c1cccn1C | -1.24 |
| CSc1ccccc1NC(=S)N/N=C/c1cccn1Cc1cccc(C)c1 | 11.3 |
| O=C1COc2ccc(C(=O)COC(=O)c3cccnc3Cl)cc2N1 | 17.5 |
| COc1ccccc1NC(=S)Nc1ccccn1 | 10.7 |
| CCC(NC(C)C)C(O)c1ccc(O)c2[nH]c(=O)ccc12.Cl (centres unmarked) | 7.97 |
| CCOC(=O)C1=C2N(C)c3ccccc3N2CCC1=O | 1.52 |
| O=C(COc1ccccc1F)N1CCN(CCN2C(=O)c3cccc4cccc(c34)C2=O)CC1 | -28.5 |
| CC(OC(=O)CNC(=O)c1ccc(F)cc1)C(=O)Nc1ccc(S(=O)(=O)N2CCOCC2)cc1 (centres unmarked) | -11.2 |
| CCOC(=O)CSc1nc2c(sc(=S)n2-c2ccccc2)c(=O)n1-c1ccc(OC)cc1OC | 23.4 |
| N#C/C(=C\c1cccs1)C(=O)NCc1ccccc1 | 7.73 |
| O=P(COCCCCCOCP(=O)(c1ccccc1)c1ccccc1)(c1ccccc1)c1ccccc1 | -36.9 |
